Test results taken from paper PMC4336329 (PLoS ONE, 2015).
Among all 310,000 compounds or so, about 14,000 (4.5%) showed an effect of 50% or more. Effects have a minus sign here. This is one part of the list.

Target: human ether-à-go-go-related gene (hERG) potassium channel (human, UniProt Q12809)
Assay: primary screen, population patch clamp on CHO cells stably expressing hERG
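Further: peak tail current of the secondary pulse compared with the same well before compound.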

Chain of human ether-à-go-go-related gene (hERG) potassium channel (Q12809 whole entry, looked up): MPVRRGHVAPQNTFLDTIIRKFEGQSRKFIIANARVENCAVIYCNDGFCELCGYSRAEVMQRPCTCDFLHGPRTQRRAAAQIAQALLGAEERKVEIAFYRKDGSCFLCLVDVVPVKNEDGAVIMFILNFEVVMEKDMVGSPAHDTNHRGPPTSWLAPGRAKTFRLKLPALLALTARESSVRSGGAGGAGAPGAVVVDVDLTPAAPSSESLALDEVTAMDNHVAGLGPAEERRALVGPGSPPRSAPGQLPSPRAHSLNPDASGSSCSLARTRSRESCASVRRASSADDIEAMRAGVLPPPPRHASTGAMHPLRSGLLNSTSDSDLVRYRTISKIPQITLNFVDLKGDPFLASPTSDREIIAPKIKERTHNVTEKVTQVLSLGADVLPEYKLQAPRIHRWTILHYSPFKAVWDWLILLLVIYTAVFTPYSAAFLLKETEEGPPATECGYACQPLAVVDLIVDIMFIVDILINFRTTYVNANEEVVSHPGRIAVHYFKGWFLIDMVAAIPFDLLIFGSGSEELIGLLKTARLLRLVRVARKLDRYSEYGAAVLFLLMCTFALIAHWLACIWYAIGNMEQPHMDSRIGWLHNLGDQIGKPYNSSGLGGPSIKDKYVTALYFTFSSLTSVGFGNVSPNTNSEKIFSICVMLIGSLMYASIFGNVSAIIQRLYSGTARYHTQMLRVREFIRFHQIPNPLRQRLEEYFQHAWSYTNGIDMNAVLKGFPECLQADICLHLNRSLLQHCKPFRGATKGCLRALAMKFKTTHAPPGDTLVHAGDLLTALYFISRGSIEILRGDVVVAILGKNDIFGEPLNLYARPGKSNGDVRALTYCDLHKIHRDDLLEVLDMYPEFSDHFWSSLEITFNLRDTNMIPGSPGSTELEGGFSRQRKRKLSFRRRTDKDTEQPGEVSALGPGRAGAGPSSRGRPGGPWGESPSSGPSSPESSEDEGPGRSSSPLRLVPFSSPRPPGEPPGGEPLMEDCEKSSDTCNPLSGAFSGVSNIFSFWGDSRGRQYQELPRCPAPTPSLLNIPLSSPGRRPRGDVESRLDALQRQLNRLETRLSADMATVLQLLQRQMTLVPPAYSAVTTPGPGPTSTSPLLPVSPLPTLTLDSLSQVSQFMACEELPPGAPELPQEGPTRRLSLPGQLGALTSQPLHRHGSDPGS

Which “hERG current change (%, negative = inhibition) at 10uM” value does the source give for Cl.Nc1nc(C23CC4CC(CC(C4)C2)C3)cs1 here?
The value was 6.44%.

With O=C(N/N=C/c1ccc([N+](=O)[O-])o1)c1cn(-c2ccccc2)nc1-c1ccccc1 as the compound, how does the “hERG current change (%, negative = inhibition) at 10uM” value read?
The value was 3.46%.

How did the “hERG current change (%, negative = inhibition) at 10uM” value turn out when O=C(Nc1ccccc1)c1ccc[n+](Cc2ccc([N+](=O)[O-])cc2)c1.[Br-] was run?
Its value is -4.25%.

For COc1cc(NC(=O)c2ccccc2)c(OC)cc1NC(=O)Cc1ccc(F)cc1, which “hERG current change (%, negative = inhibition) at 10uM” value is on record?
The value was -5.76%.

CCS(=O)(=O)C1=NN2C(=N)/C(=C\c3ccc(OCCOc4cccc(OC)c4)c(OC)c3)C(=O)N=C2S1 was tested. Which “hERG current change (%, negative = inhibition) at 10uM” value did it give?
The value was 18.4%.

Which “hERG current change (%, negative = inhibition) at 10uM” value does the source give for CCOC(=O)CN1N=C(/C=C/c2ccc(OCC)cc2)CCC1=O here?
Its value is -6.84%.

How did the “hERG current change (%, negative = inhibition) at 10uM” value turn out when COC(=O)[C@H](Cc1ccccc1)NC(=O)NCCc1ccc(F)cc1 was run?
The value was -13.2%.

How did the “hERG current change (%, negative = inhibition) at 10uM” value turn out when O=C(Oc1ccccc1Cl)c1ccc(N2CCOCC2)c([N+](=O)[O-])c1 was run?
Its value is -4.98%.

For CS(=O)(=O)Nc1ccc(C(=O)NC2CCCC2)cc1, which “hERG current change (%, negative = inhibition) at 10uM” value is on record?
The value was 10.1%.

COc1ccccc1CNC(=O)CC1Sc2ccccc2NC1=O (centres unmarked) was tested. Which “hERG current change (%, negative = inhibition) at 10uM” value did it give?
The value was -3.77%.

COc1ccc(CC(NC(C)=O)C(=O)N2CCN(C(=O)Nc3ccc(Cl)cc3)CC2)cc1OC (centres unmarked) was tested. Which “hERG current change (%, negative = inhibition) at 10uM” value did it give?
Its value is -33.8%.

For COc1ccc(/C=C/C(=O)OCC(=O)c2ccc3c(c2)NC(=O)CO3)c(OC)c1, which “hERG current change (%, negative = inhibition) at 10uM” value is on record?
Its value is 1.6%.

Which “hERG current change (%, negative = inhibition) at 10uM” value does the source give for C=CCOC(=O)C1=C(C)N=C2SCCC(=O)N2C1/C=C/c1ccccc1OC (centres unmarked) here?
The value was 0.449%.

How did the “hERG current change (%, negative = inhibition) at 10uM” value turn out when C=CCn1cc(/C=N/N2C(=O)C3C4C=CC(C4)C3C2=O)c2ccccc21 (centres unmarked) was run?
Its value is -3.93%.

For O=C(O)c1cc(N2C(=O)C3CC=CCC3C2=O)ccc1NCc1cccnc1 (centres unmarked), which “hERG current change (%, negative = inhibition) at 10uM” value is on record?
Its value is 15%.

CCN(CC)S(=O)(=O)c1ccc(N=NC2=C(O)CC(C)(C)CC2=O)cc1 was tested. Which “hERG current change (%, negative = inhibition) at 10uM” value did it give?
Its value is 3.89%.

CCCCc1ccc(NS(=O)(=O)c2c(C)n(C)c(=O)n(C)c2=O)cc1 was tested. Which “hERG current change (%, negative = inhibition) at 10uM” value did it give?
The value was -3.46%.

How did the “hERG current change (%, negative = inhibition) at 10uM” value turn out when O=C(NC1CCCCC1)c1cc2nc3c(c(C(F)(F)F)n2n1)CCCC3 was run?
The value was -25.7%.

How did the “hERG current change (%, negative = inhibition) at 10uM” value turn out when COc1ccccc1C(=O)NC(=O)CSc1nnc(N)s1 was run?
The value was -1.2%.

How did the “hERG current change (%, negative = inhibition) at 10uM” value turn out when CCOC(=O)C1CCN(c2ncnc3c2oc2ccc(Br)cc23)CC1 was run?
Its value is -9.99%.

COc1ccccc1S(=O)(=O)Nc1cc(S(=O)(=O)N2CCCCC2)ccc1N1CCOCC1 was tested. Which “hERG current change (%, negative = inhibition) at 10uM” value did it give?
The value was -36%.

For O=c1c2cnn(-c3ccccc3)c2nnn1/N=C/c1cccnc1, which “hERG current change (%, negative = inhibition) at 10uM” value is on record?
Its value is 14.2%.

Which “hERG current change (%, negative = inhibition) at 10uM” value does the source give for O=C(NCc1cccnc1)c1noc2c1CCCC2 here?
The value was -4.81%.
